Assay results reported in PubChem BioAssay AID1159614 (National Center for Advancing Translational Sciences (NCATS), 2016).
In all, about 45,000 compounds went through this assay and about 65 (0.1%) were called active. Calls come from the whole dose curve; as a rule, active = well fitted activation curve with a large enough effect; inconclusive = small, poorly fitted or top-dose-only effect; inactive = no such curve, though single readings can be large or run the other way. The list shows a part of the results.

target: Galactocerebrosidase (Homo sapiens) (UniProt P54803); assay: A Novel Cell-Based Assay to Identify Small Molecules for B -Galactocerebrosidase; details: 145M-Twi-hGALC-G270D cells (Twitcher mouse brain line with human GALC G270D), HMU-beta-Gal fluorescence, 48 h; series mostly up to 57.5 µM; activation: at the top concentration; note: 0% is about no effect; nearly all actives have a fitted effect of over 65% in size
UniProt P54803, sequence (P54803 whole entry, looked up): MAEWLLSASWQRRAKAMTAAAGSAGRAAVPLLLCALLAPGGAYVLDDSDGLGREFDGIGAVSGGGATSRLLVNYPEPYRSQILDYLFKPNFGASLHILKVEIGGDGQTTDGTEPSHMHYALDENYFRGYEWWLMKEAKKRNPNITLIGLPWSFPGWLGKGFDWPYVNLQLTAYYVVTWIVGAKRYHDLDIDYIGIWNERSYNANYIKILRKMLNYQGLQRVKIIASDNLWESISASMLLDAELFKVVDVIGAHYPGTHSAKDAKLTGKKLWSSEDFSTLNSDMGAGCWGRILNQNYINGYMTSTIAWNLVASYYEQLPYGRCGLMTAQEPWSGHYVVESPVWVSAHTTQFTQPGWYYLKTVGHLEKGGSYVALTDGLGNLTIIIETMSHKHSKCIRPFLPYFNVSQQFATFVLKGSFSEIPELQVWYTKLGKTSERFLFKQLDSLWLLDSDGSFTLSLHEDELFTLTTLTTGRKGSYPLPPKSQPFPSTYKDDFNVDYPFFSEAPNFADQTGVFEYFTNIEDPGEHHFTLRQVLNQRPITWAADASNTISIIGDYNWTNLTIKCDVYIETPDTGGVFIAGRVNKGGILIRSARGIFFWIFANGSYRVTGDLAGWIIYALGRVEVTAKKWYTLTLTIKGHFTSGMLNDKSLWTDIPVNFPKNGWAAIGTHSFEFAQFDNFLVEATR
Summary of the method: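 Live 145M-Twi cells (Twitcher mouse brain-derived, GALC-null) stably expressing human GALC-G270D, with a wild-type GALC line, were compound-treated. Residual GALC activity was then read as fluorescence from 0.1 mM final HMU-β-gal at pH 5.2; higher signal means activation.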

Q: `CCOc1ccc(CCNC(=O)c2ccc(CS(=O)Cc3ccc(Cl)cc3)o2)cc1` (stereo not drawn) was tested. Which “activation” value did it give?
A: The value was inactive: -40.6%.

Q: `Cn1c(=O)oc2cc(S(=O)(=O)N3CCC(C(=O)N4CCN(c5cccc(Cl)c5)CC4)CC3)ccc21` was tested. Which “activation” value did it give?
A: The value was inactive: -33.7%.

Q: Which “activation” value does the source give for `CC(C)c1ccc(NC(=O)CCNS(=O)(=O)c2cccc3nsnc23)cc1` here?
A: Its value is inactive: 10.7%.

Q: `CCC(C(=O)OCCN(CC)CC)c1ccccc1` (stereo not drawn) was tested. Which “activation” value did it give?
A: Its value is inactive: -12.5%.

Q: How did the “activation” value turn out when `CN1CCN(CCC(=O)Nc2ccc(Cl)cc2)CC1` was run?
A: Its value is inactive: -6.94%.

Q: With `COc1ccc(C(=O)Oc2ccc(C(c3c(C)[nH][nH]c3=O)c3c(C)[nH][nH]c3=O)cc2OC)cc1` as the molecule, how does the “activation” value read?
A: The value was inactive: -23.1%.

Q: How did the “activation” value turn out when `CCOc1ccc(NC(=O)c2oc3ccccc3c2NC(=O)Cc2cccc(C)c2)cc1` was run?
A: The value was inactive: 0.13%.

Q: `COC(=O)Nc1nc2ccc(S(=O)c3ccccc3)cc2[nH]1` (stereo not drawn) was tested. Which “activation” value did it give?
A: The value was inactive: -13.5%.

Q: `COc1ccc(OC)c(NS(=O)(=O)c2ccc(Br)s2)c1` was tested. Which “activation” value did it give?
A: The value was inactive: 1.92%.

Q: With `CCn1cc(C(=O)O)c(=O)c2cc3c(cc21)OCO3` as the molecule, how does the “activation” value read?
A: Its value is inactive: -6.37% [at 23.8 µM].

Q: How did the “activation” value turn out when `O=C(COc1ccc(Cl)cc1)NCCc1csc(-c2cccc(F)c2)n1` was run?
A: The value was inactive: -18%.

Q: `Cc1ccc(NC(=O)Cn2c(=O)ccc3cc(S(=O)(=O)N4CCC(C)CC4)ccc32)cc1C` was tested. Which “activation” value did it give?
A: The value was inactive: -12.1%.

Q: With `CCCN1C(C(=O)c2ccccc2)=C(OC(=O)c2ccc(C)cc2)c2ccccc2S1(=O)=O` as the molecule, how does the “activation” value read?
A: The value was inactive: -7.61%.

Q: Which “activation” value does the source give for `Cc1cccc(NC(=O)CSc2nc(=O)n(Cc3cccnc3)c3c2CCC3)c1` here?
A: The value was inactive: 2.06%.

Q: With `Cn1ncc(C(=O)N2CCN(c3ccccc3F)CC2)c1C1CCN(C(=O)OC(C)(C)C)CC1` as the molecule, how does the “activation” value read?
A: Its value is inactive: -7.53%.

Q: How did the “activation” value turn out when `CC(=O)c1ccc(NC(=O)CSc2nccn2Cc2ccc3c(c2)OCO3)cc1` was run?
A: The value was inactive: -13.5%.

Q: `Cc1cc(SCC(=O)NCc2ccc(F)cc2)nc(=O)[nH]1` was tested. Which “activation” value did it give?
A: Its value is inactive: -2.65%.

Q: For `COc1cc(NC(=O)c2ncn(-c3ccccc3)n2)cc(OC)c1`, which “activation” value is on record?
A: Its value is inactive: -15.5%.

Q: `Cc1ccc(NC(=O)CSc2nc(-c3ccco3)cc(C(F)(F)F)n2)cc1C` was tested. Which “activation” value did it give?
A: Its value is inactive: -16.4%.

Q: How did the “activation” value turn out when `O=C(COCc1cc(-c2ccco2)on1)Nc1cccc(Cl)c1Cl` was run?
A: The value was inactive: 2.77%.

Q: `COc1ccc(C2N3CC4(C)CN2CC(c2ccccc2)(C3)C4=O)cc1` (stereo not drawn) was tested. Which “activation” value did it give?
A: The value was inactive: -11.2%.

Q: With `Cc1ccc(NC(=O)c2nc(-c3ccncc3)no2)c(Cl)c1` as the molecule, how does the “activation” value read?
A: Its value is inactive: -13.1%.

Q: `CCOc1ccccc1-n1nnc(S(=O)(=O)c2ccc(C)cc2)c1N` was tested. Which “activation” value did it give?
A: The value was inactive: 5.52%.

Q: `CCCCN(CC)CCCNC(=O)c1cn(CC)c2ccc(S(=O)(=O)N3CCOCC3)cc2c1=O` was tested. Which “activation” value did it give?
A: The value was inactive: -6.1%.

Q: With `O=C(c1cc(F)cc(F)c1)N1CCC(c2nc(-c3ccc(S(=O)(=O)N4CCCC4)cc3)no2)CC1` as the molecule, how does the “activation” value read?
A: The value was inactive: -4.11%.

Q: How did the “activation” value turn out when `COc1ccc(OC)c(CCNC(=O)c2cc3c(=O)n(C)c4ccccc4c3n2C)c1` was run?
A: The value was inactive: -10.6%.

Q: How did the “activation” value turn out when `CCOc1ccc(NC(=O)CN2CCN(c3ccc(Cl)cc3)CC2)cc1` was run?
A: Its value is inactive: -8.24%.

Q: `O=C(NCC1CCN(Cc2ccc(F)cc2)CC1)c1cc2ccc3cccnc3c2[nH]1` was tested. Which “activation” value did it give?
A: Its value is inactive: -14.1%.

Q: With `CCOc1ccc(NC(=O)Cn2c(=O)oc3cc(S(=O)(=O)N4CCC(C)CC4)ccc32)cc1` as the molecule, how does the “activation” value read?
A: Its value is inactive: -6.33%.

Q: `Cc1cc(=O)n2nc(N(C)CC(=O)NCc3ccc(Cl)cc3)sc2n1` was tested. Which “activation” value did it give?
A: The value was inactive: -5.5%.

Q: For `CCOC(=O)c1cccc(NC(=O)C2CCCN(S(=O)(=O)c3cc(Br)cc4c3N(C(=O)CC)CC4)C2)c1` (stereo not drawn), which “activation” value is on record?
A: Its value is inactive: -21.5%.

Q: How did the “activation” value turn out when `COc1ccc(CN(C(=O)Cc2coc3ccc(C)cc23)C2CCS(=O)(=O)C2)cc1` (stereo not drawn) was run?
A: Its value is inactive: -15.8%.

Q: For `CCc1cccc(NC(=O)CCN2C(=O)c3ccccc3Sc3ncccc32)c1`, which “activation” value is on record?
A: The value was inactive: 1.92%.

Q: How did the “activation” value turn out when `O=C(Cn1c(=O)nc(-c2ccccc2)c2cc(Cl)ccc21)NCCc1ccccc1` was run?
A: Its value is inactive: -9.26%.

Q: `Cc1cc(=O)oc2cc(O[C@@H]3SC[C@@H](O)[C@H](O)[C@H]3O)ccc12` was tested. Which “activation” value did it give?
A: The value was inactive: -14.3%.

Q: Which “activation” value does the source give for `COc1cc(Cl)c(C)cc1NC(=O)c1cc2c(s1)-c1c(C)cccc1OC2` here?
A: The value was inactive: -8.77%.

Q: For `Cc1sc2ncn(CC(=O)N3CCN(c4ccc(F)cc4)CC3)c(=O)c2c1S(=O)(=O)N1CCN(c2ncccn2)CC1`, which “activation” value is on record?
A: Its value is inactive: -5.79%.

Q: `Cc1cc2[nH]c(=O)c(=O)[nH]c2cc1S(=O)(=O)Nc1cccc(C(F)(F)F)c1` was tested. Which “activation” value did it give?
A: Its value is inactive: -10.3%.

Q: Which “activation” value does the source give for `CCc1nn(CC(=O)N2CCN(c3cccc(C)c3C)CC2)c(=O)c2cc3sccc3n12` here?
A: Its value is inactive: 4.69%.

Q: For `CCC(=O)N1CCc2cc(S(=O)(=O)NC(CC(C)C)C(=O)NCc3ccc(C)cc3)ccc21` (stereo not drawn), which “activation” value is on record?
A: The value was inactive: -10.6%.

Q: Which “activation” value does the source give for `Cc1ccc(O)c(-c2n[nH]c3c2C(c2ccccc2F)N(Cc2ccco2)C3=O)c1` (stereo not drawn) here?
A: Its value is inactive: -16.8%.

Q: How did the “activation” value turn out when `Cc1cc(C)c(NC(=O)Cc2ccc(-n3c(C)nc4cccnc43)cc2)c(C)c1` was run?
A: The value was inactive: 11.1%.

Q: `C=CC[N+]1([C@H]2C[C@H]3[C@@H]4CC[C@H]5C[C@H](OC(C)=O)[C@@H](N6CCCCC6)C[C@]5(C)[C@H]4CC[C@]3(C)[C@H]2OC(=O)CC)CCCCC1` was tested. Which “activation” value did it give?
A: The value was inactive: -8.82%.

Q: Which “activation” value does the source give for `COc1ccc(CNC(=O)CS(=O)(=O)c2cccc3nsnc23)cc1` here?
A: Its value is inactive: 12.8%.

Q: How did the “activation” value turn out when `CCOc1cc(C2C(C(=O)OC)=C(C)NC3=C2C(=O)c2ccccc23)cc(Br)c1OCC` (stereo not drawn) was run?
A: Its value is inactive: 10.6%.

Q: Which “activation” value does the source give for `Cc1ccc(OC(=O)CSc2nnc(-c3cccs3)o2)c(C)c1` here?
A: Its value is inactive: -16.8%.

Q: `COc1ccc(Cl)cc1C(=O)NCc1nc(-c2cccc(C)c2)no1` was tested. Which “activation” value did it give?
A: Its value is inactive: -6.27%.

Q: `O=C(c1ccc([N+](=O)[O-])cc1)N1c2ncnn2C2(CCCCC2)[C@@H]2CCCC[C@@H]21` was tested. Which “activation” value did it give?
A: Its value is inactive: -8.23%.
